This is a noisy data set.
B1: Ydj1; a variant is named by its letters at X, in order (parent)
chain: MVKETKFYDILGVPVTATDVEIKKAYRKCALKYHPDKNPSEEAAEKFKEASAAYEILSDPEKRDIYDQFGEDGLSGAGGAGGFPGGGFGFGDDIFSQFFGAGGAQRPRGPQRGKDIKHEISASLEELYKGRTAKLALNKQILCKECEGRGGKKGAVKKCTSCNGQGIKFVTRQMGPMIQRFQTECDVCHGTGDIIDPKDRCKSCNGKKVENERKILEVHVEPGMKDGQRIVFKGEADQAPDVIPGDVVFIVSERPHKSFKRDGDDLVYEAEIDLLTAIAGGEFALEHVSGDWLKVGIVPGEVIAPGMRKVIEGKGMPIPKYGGYGNLIIKFTIKFPENHFTSEENLKKLEEILPPRIVPAIPKKATVDECVLADFDPAKYNRTRASRGGANYDSDEEEQGGEGVQCXXX

Variants of: B1
Test: enrichment factor, frequency at 37 °C / frequency at 25 °C (thermotolerance selection) (ratio); higher = more growth at 37 °C, higher likelihood of farnesylation
Conditions: with Saccharomyces cerevisiae ydj1Δ (yWS304); selective temperature 37 °C; reference temperature 25 °C

Variant | enrichment factor
RVR | 0.255
RVF | 1.43
RVI | 0.772
RVN | 1.71
RVQ | 2.35
RVL | 1.05
RVK | 1.07
RVG | 2.25
RVW | 1.9
RVM | 0.524
RVE | 1.64
RVT | 1.25
RVP | 0.13
RVV | 1.27
RVS | 0.722
RVH | 2.8
TVS | 0.97
TVV | 0.965
TVT | 1.01
TVL | 0.602
TVK | 2.25
TVN | 4.05
TVE | 2.7
TVD | 2.17

Variant | enrichment factor
TVF | 1.12
TVP | 0.0993
TVR | 1.33
TVW | 0.869
TVH | 2.53
TVG | 1.5
TVQ | 2.26
TVM | 0.794
TVI | 0.632
IVT | 1.83
IVV | 1.65
IVW | 2.19
IVR | 1.66
IVL | 1.67
IVS | 0.515
IVE | 2.74
IVQ | 1.45
IVM | 0.591
IVH | 1.39
IVG | 2
IVP | 0.102
IVF | 2.08
IVY | 1.57
IVI | 1.19

Variant | enrichment factor
IVN | 2.15
IVK | 1.53
SVI | 1
SVQ | 2.13
SVL | 0.818
SVR | 0.73
SVP | 0.125
SVM | 0.856
SVN | 2.22
SVG | 2.84
SVE | 1.43
SVH | 2.72
SVS | 1.34
SVK | 1.97
SVV | 0.927
SVF | 1.06
SVW | 1.62
SVT | 1.2
PVK | 1.16
PVQ | 0.945
PVT | 1.59
PVS | 1.53
PVL | 0.964
PVP | 0.12

Variant | enrichment factor
PVH | 1.51
PVN | 1.47
PVR | 0.388
PVE | 1.49
PVM | 0.984
PVG | 1.29
PVV | 1.19
PVI | 0.919
PVF | 0.792
PVW | 0.573
AVR | 1.29
AVL | 1.59
AVG | 3.72
AVN | 1.87
AVP | 0.16
AVY | 1.61
AVW | 0.579
AVI | 0.586
AVQ | 1.88
AVV | 1.48
AVT | 1.37
AVM | 0.719
AVF | 0.737
AVS | 1.04

Variant | enrichment factor
AVH | 3.25
AVE | 2.19
AVK | 1.38
HVM | 1.22
HVS | 2.21
HVG | 2.42
HVP | 1.28
HVF | 4.05
HVN | 1.88
HVQ | 3.1
HVW | 2.9
HVE | 2.79
HVT | 2.83
HVL | 1.97
HVY | 2.08
HVV | 1.16
HVH | 1.69
HVK | 2.75
HVI | 1.53
HVR | 0.251
QVL | 1.76
QVG | 1.8
QVS | 4.7
QVF | 2.17

Variant | enrichment factor
QVN | 4.22
QVK | 1.56
QVR | 1.13
QVH | 3.92
QVQ | 3.08
QVW | 2.37
QVE | 1.53
QVV | 2.65
QVT | 2.5
QVI | 2.12
QVP | 0.144
QVM | 2.39
NVQ | 3.42
NVE | 1.78
NVG | 3.19
NVT | 2.83
NVI | 2.67
NVL | 1.41
NVV | 1.14
NVH | 2.98
NVW | 0.689
NVS | 1.74
NVF | 2.32
NVR | 0.591

Variant | enrichment factor
NVP | 0.182
NVN | 2.13
NVK | 2.37
NVM | 0.922
WVW | 1.26
WVS | 1.74
WVG | 3.09
WVI | 2.55
WVT | 3.19
WVD | 2.89
WVK | 1.04
WVE | 3.7
WVR | 0.251
WVF | 0.772
WVM | 1.93
WVP | 2.09
WVQ | 2.06
WVN | 1.16
WVV | 2.7
WVH | 2.12
WVL | 2.05
YVN | 1.27
YVH | 1.99
YVL | 1.54

Variant | enrichment factor
YVI | 2.9
YVT | 1.08
YVK | 2.73
YVD | 2.32
YVE | 2.39
YVF | 1.54
YVV | 2.12
YVW | 2.4
YVG | 1.3
YVQ | 3.99
YVM | 0.724
YVP | 1.85
YVS | 1.7
YVR | 0.157
EVT | 2.26
EVR | 1.05
EVK | 1.4
EVI | 1.76
EVQ | 2.16
EVF | 2.62
EVY | 1.29
EVL | 1.57
EVN | 2.32
EVP | 0.151

Variant | enrichment factor
EVE | 1.36
EVH | 3.79
EVG | 3.12
EVV | 2.06
EVW | 1.59
EVS | 1.75
EVM | 1.67
KVG | 2.32
KVE | 1.54
KVI | 1.16
KVS | 2.67
KVR | 0.145
KVP | 0.105
KVL | 2.08
KVT | 2.36
KVQ | 4.37
KVW | 1.29
KVN | 3.31
KVF | 2.78
KVH | 3.84
KVV | 1.5
KVK | 1.43
KVY | 2.74
KVM | 1.7

Variant | enrichment factor
GVV | 1.55
GVY | 2.2
GVH | 2.4
GVW | 1.24
GVP | 0.264
GVM | 0.842
GVS | 1.48
GVT | 2.38
GVQ | 1.34
GVE | 1.79
GVF | 1.08
GVN | 1.44
GVI | 1.11
GVK | 1.32
GVL | 1.57
GVG | 3.98
GVR | 0.191
DVT | 1.98
DVS | 2.18
DVN | 2.23
DVI | 1.41
DVV | 1.23
DVG | 1.71
DVF | 2.01

Variant | enrichment factor
DVH | 1.93
DVQ | 2.3
DVE | 1.06
DVP | 0.0847
DVW | 1.41
DVL | 1.76
DVM | 2.02
DVY | 1.76
DVK | 0.244
DVR | 0.12
FVY | 1.27
FVN | 1.31
FVS | 0.965
FVV | 1.16
FVP | 1.83
FVF | 1.32
FVT | 1.62
FVK | 1.83
FVQ | 1.29
FVW | 1.92
FVE | 2.58
FVL | 0.948
FVH | 1.49
FVM | 1.16

Variant | enrichment factor
FVG | 0.463
FVI | 2.9
FVR | 0.219
VVH | 1.12
VVG | 1.54
VVF | 1.21
VVP | 0.101
VVT | 0.736
VVK | 1.11
VVQ | 0.935
VVV | 0.865
VVL | 0.853
VVR | 1.27
VVE | 1.05
VVS | 0.489
VVN | 1.88
VVW | 0.869
VVD | 1.94
VVI | 0.772
VVM | 0.72
MVL | 1.85
MVG | 1.21
MVN | 1.95
MVE | 1.64

Variant | enrichment factor
MVW | 1.16
MVS | 1.52
MVK | 1.43
MVH | 2.7
MVP | 0.138
MVR | 0.381
MVI | 1.59
MVM | 0.93
MVF | 0.643
MVT | 1.98
MVV | 1.66
MVQ | 1.61
LVE | 1.82
LVH | 2.43
LVG | 2.65
LVF | 1.54
LVP | 0.26
LVL | 1.35
LVV | 0.914
LVT | 3.03
LVN | 3.06
LVK | 1.56
LVY | 3.43
LVI | 1.4

Variant | enrichment factor
LVS | 2.62
LVR | 0.902
LVM | 0.933
LVW | 1.32
LVQ | 2.52
CVH | 1.92
CVF | 0.865
CVQ | 1.14
CVI | 0.772
CVP | 1.51
CVK | 1.61
CVT | 0.903
CVM | 1.13
CVE | 1.8
CVS | 0.612
CVD | 1.83
CVV | 1.01
CVG | 0.746
CVL | 0.997
CVN | 1.18
CVW | 0.478
CVR | 0.755
